In the supplement of paper PMC11741623 one finds yeast fitness gain data, which are given here for four molecules.

Sequences and labels used below:
B1: PLEKHF1, Q96S99 (protein)
chain: MVDHLANTEINSQRIAAVESCFGASGQPLALPGRVLLGEGVLTKECRKKAKPRIFFLFNDILVYGSIVLNKRKYRSQHIIPLEEVTLELLPETLQAKNRWMIKTAKKSFVVSAASATERQEWISHIEECVRRQLRATGRPPSTEHAAPWIPDKATDICMRCTQTRFSALTRRHHCRKCGFVVCAECSRQRFLLPRLSPKPVRVCSLCYRELAAQQRQEEAEEQGAGSPGQPAHLARPICGASSGDDDDSDEDKEGSRDGDWPSSVEFYASGVAWSAFHS
B2: IL2RB, P14784 (protein)
chain: MAAPALSWRLPLLILLLPLATSWASAAVNGTSQFTCFYNSRANISCVWSQDGALQDTSCQVHAWPDRRRWNQTCELLPVSQASWACNLILGAPDSQKLTTVDIVTLRVLCREGVRWRVMAIQDFKPFENLRLMAPISLQVVHVETHRCNISWEISQASHYFERHLEFEARTLSPGHTWEEAPLLTLKQKQEWICLETLTPDTQYEFQVRVKPLQGEFTTWSPWSQPLAFRTKPAALGKDTIPWLGHLLVGLSGAFGFIILVYLLINCRNTGPWLKKVLKCNTPDPSKFFSQLSSEHGGDVQKWLSSPFPSSSFSPGGLAPEISPLEVLERDKVTQLLLQQDKVPEPASLSSNHSLTSCFTNQGYFFFHLPDALEIEACQVYFTYDPYSEEDPDEGVAGAPTGSSPQPLQPLSGEDDAYCTFPSRDDLLLFSPSLLGGPSPPSTAPGGSGAGEERMPPSLQERVPRDWDPQPLGPPTPGVPDLVDFQPPPELVLREAGEEVPDAGPREGVSFPWSRPPGQGEFRALNARLPLNTDAYLSLQELQGQDPTHLV
B3: RAB32, Q13637 (protein)
chain: MAGGGAGDPGLGAAAAPAPETREHLFKVLVIGELGVGKTSIIKRYVHQLFSQHYRATIGVDFALKVLNWDSRTLVRLQLWDIAGQERFGNMTRVYYKEAVGAFVVFDISRSSTFEAVLKWKSDLDSKVHLPNGSPIPAVLLANKCDQNKDSSQSPSQVDQFCKEHGFAGWFETSAKDNINIEEAARFLVEKILVNHQSFPNEENDVDKIKLDQETLRAENKSQCC
B4: GYG2, O15488 (protein)
chain: MSETEFHHGAQAGLELLRSSNSPTSASQSAGMTVTDQAFVTLATNDIYCQGALVLGQSLRRHRLTRKLVVLITPQVSSLLRVILSKVFDEVIEVNLIDSADYIHLAFLKRPELGLTLTKLHCWTLTHYSKCVFLDADTLVLSNVDELFDRGEFSAAPDPGWPDCFNSGVFVFQPSLHTHKLLLQHAMEHGSFDGADQGLLNSFFRNWSTTDIHKHLPFIYNLSSNTMYTYSPAFKQFGSSAKVVHFLGSMKPWNYKYNPQSGSVLEQGSASSSQHQAAFLHLWWTVYQNNVLPLYKSVQAGEARASPGHTLCHSDVGGPCADSASGVGEPCENSTPSAGVPCANSPLGSNQPAQGLPEPTQIVDETLSLPEGRRSEDMIACPETETPAVITCDPLSQPSPQPADFTETETILQPANKVESVSSEETFEPSQELPAEALRDPSLQDALEVDLAVSVSQISIEEKVKELSPEEERRKWEEGRIDYMGKDAFARIQEKLDRFLQ

This is one part of the list. Interaction screen of human proteins with wild-type SARS-CoV-2 proteins by split-DHFR complementation in yeast, 1 µg/mL methotrexate. Value = fitness of the pair (three or more lineages) minus that of the viral protein without a human partner, on a scale set by negative (0) and fused positive (1) controls, mean of up to three cultures; higher = more likely to interact. Active = false discovery rate below 0.05 (one-sided t-test) in at least one culture. Nearly all pairs are not hits, and differences among them are mostly noise (correlation between cultures about 0.3); most hits were seen in one culture only. Human sequences are the Swiss-Prot entries looked up by gene name; the clone may be another isoform. NSP2 values were corrected by the authors for a growth advantage. Listed are human proteins with a hit and a random twelfth of the others.

In one experiment the target is SARS-CoV-2 M. Nature of the experiment: yeast fitness gain over the viral ORF with no human partner (scaled fitness); higher = more likely to interact. The procedure: (§1)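 Split mouse DHFR complementation in pooled diploid yeast: human ORFeome clones carry one fragment and viral ORFs the other; barcoded lineages compete in 1 µg/mL methotrexate and fitness is read by barcode sequencing in up to three cultures.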
B1: the yeast fitness gain is inactive: 0.00204.
Take B2: the yeast fitness gain is inactive: -0.00968.
For B3, the yeast fitness gain was inactive: 0.128.
Consider B4, for which the yeast fitness gain was inactive: -0.00785.

The next experiment addresses SARS-CoV-2 NSP1. Described as above. As for the experimental part:
as §1
B1: the yeast fitness gain is inactive: -0.0526.
For the molecule B2, the yeast fitness gain was inactive: -0.00504.

Another experiment addresses SARS-CoV-2 NSP10. The description is as above. As for the experimental part: as §1
Consider B1, for which the yeast fitness gain is inactive: -0.0472.
For B2, the yeast fitness gain is inactive: -0.0268.
With B4, the yeast fitness gain was inactive: -0.209.

The next experiment concerns the target SARS-CoV-2 NSP12. The description is as above. The procedure: as §1
For the molecule B1, the yeast fitness gain was inactive: 0.0771.
As for B2, the yeast fitness gain is inactive: -0.0761.
Take B4: the yeast fitness gain was inactive: 0.0315.

In another experiment the target is SARS-CoV-2 NSP13. The experiment is described as above. As for the experimental part:
as §1
As to B1, the yeast fitness gain is inactive: -0.0497.
Same read-out and setting: for B2 the value was inactive: -0.195; for B3, inactive: -0.0796.
Take B4: the yeast fitness gain is inactive: 0.0367.

A further experiment deals with SARS-CoV-2 NSP14. The experiment is described as above. The procedure: as §1
Consider B1, for which the yeast fitness gain was inactive: 0.0278.
Regarding B4, the yeast fitness gain is inactive: 0.0503.

The target in the next experiment is SARS-CoV-2 NSP15. Described as above. The procedure: as §1
As to B1, the yeast fitness gain was inactive: -0.0237.
On to B4, for which the yeast fitness gain was inactive: 0.00308.

A further experiment deals with SARS-CoV-2 NSP16. The experiment is described as above. As for the experimental part:
as §1
Take B1: the yeast fitness gain was inactive: 0.0408.

A further experiment deals with SARS-CoV-2 NSP2. The description is as above. The procedure: as §1
Take B1: the yeast fitness gain is inactive: -0.0473.
In the case of B2, the yeast fitness gain was inactive: -0.0562.
Same read-out and setting: for B3 the value was inactive: -0.111; for B4, inactive: -0.0919.

Another experiment deals with SARS-CoV-2 NSP4. The experiment is described as above. The procedure: as §1
With B1, the yeast fitness gain was inactive: -0.0427.
On to B4, for which the yeast fitness gain is inactive: 0.118.

The next experiment addresses SARS-CoV-2 NSP5. The experiment is described as above. As for the experimental part: as §1
As to B1, the yeast fitness gain is inactive: 0.0113.
Still for that read-out and setting: for B3 the value was inactive: -0.025; for B4, inactive: -0.0995.

Another experiment concerns the target SARS-CoV-2 NSP6. Described as above. The procedure: as §1
Consider B1, for which the yeast fitness gain is inactive: 0.0324.
On to B2, for which the yeast fitness gain was inactive: -0.12.
As to B3, the yeast fitness gain is inactive: -0.222.
Take B4: the yeast fitness gain is inactive: -0.0235.

The target of another experiment is SARS-CoV-2 NSP7. The experiment is described as above. As for the experimental part: as §1
In the case of B1, the yeast fitness gain is inactive: 0.0304.
Consider B2, for which the yeast fitness gain is inactive: 0.0199.
Consider B4, for which the yeast fitness gain is inactive: 0.0306.

In the next experiment the target is SARS-CoV-2 NSP8. The experiment is described as above. The procedure: as §1
B1: the yeast fitness gain was inactive: -0.0643.

For a further experiment, the target named is SARS-CoV-2 NSP9. Described as above. The procedure:
as §1
Turning to B1, the yeast fitness gain is inactive: -0.118.
On to B2, for which the yeast fitness gain is inactive: 0.184.
On to B4, for which the yeast fitness gain was inactive: -0.068.

A further experiment concerns the target SARS-CoV-2 ORF10. The description is as above. As for the experimental part:
as §1
Consider B1, for which the yeast fitness gain was inactive: 0.00213.
As for B2, the yeast fitness gain is inactive: -0.0629.
For B3, the yeast fitness gain was inactive: 0.0108.
Still for that read-out and setting: in the case of B4 it was inactive: -0.0543.

The next experiment deals with SARS-CoV-2 ORF3A. The description is as above. The procedure:
as §1
Regarding B1, the yeast fitness gain is inactive: 0.0467.
As for B4, the yeast fitness gain was inactive: -0.0278.

A further experiment addresses SARS-CoV-2 ORF3B. The description is as above. The procedure:
as §1
With B1, the yeast fitness gain was inactive: 0.00128.
As for B2, the yeast fitness gain is inactive: -0.0112.
Still for that read-out and setting: for B3 the value was inactive: 0.0868; for B4, inactive: 0.0156.

Another experiment deals with SARS-CoV-2 ORF6. The experiment is described as above. The procedure:
as §1
For B1, the yeast fitness gain was inactive: 0.0121.
In the case of B2, the yeast fitness gain was inactive: -0.0706.
Turning to B4, the yeast fitness gain is inactive: 0.0426.

Another experiment addresses SARS-CoV-2 ORF7A. The experiment is described as above. The procedure:
as §1
For the molecule B1, the yeast fitness gain is inactive: 0.067.

A further experiment addresses SARS-CoV-2 ORF7B. The description is as above. As for the experimental part:
as §1
For the molecule B1, the yeast fitness gain was inactive: 0.0267.
As to B2, the yeast fitness gain is inactive: -0.01.
As for B3, the yeast fitness gain was inactive: -0.0463.
For B4, the yeast fitness gain is inactive: -0.11.

In a further experiment the target is SARS-CoV-2 ORF8. The description is as above. As for the experimental part: as §1
For the molecule B1, the yeast fitness gain was inactive: 0.0232.
Turning to B2, the yeast fitness gain was inactive: 0.0112.
B4: the yeast fitness gain was inactive: 0.0791.

The target of another experiment is SARS-CoV-2 ORF9B. The description is as above. The procedure:
as §1
Take B1: the yeast fitness gain is inactive: 0.0512.
B2: the yeast fitness gain was inactive: -0.0887.
Still for that read-out and setting: for B3 the value was inactive: 0.133; for B4, inactive: 0.0108.

The next experiment has as its target SARS-CoV-2 ORF9Bwu (the 73-codon ORF). Described as above. As for the experimental part:
as §1
In the case of B1, the yeast fitness gain was inactive: 0.00962.

A further experiment has as its target SARS-CoV-2 S. The description is as above. The procedure:
as §1
For B1, the yeast fitness gain was inactive: 0.0409.
As for B2, the yeast fitness gain is inactive: 0.0363.
Regarding B4, the yeast fitness gain was inactive: -0.0704.

The target in the next experiment is SARS-CoV-2 N. The description is as above. As for the experimental part: as §1
As for B4, the yeast fitness gain was inactive: 0.0287.
